# The other results are listed elsewhere or left out.
# B1: CGL (Crenomytilus grayanus), H2FH31 (protein)
# chain: MTTFLIKHKASGKFLHPYGGSSNPANNTKLVLHSDIHERMYFQFDVVDERWGYIKHVASGKIVHPYGGQANPPNETNMVLHQDRHDRALFAMDFFNDNIMHKGGKYIHPKGGSPNPPNNTETVIHGDKHAAMEFIFVSPKNKDKRVLVYA
# Experiments:
# Experiment in all cases: glycan array binding signal (z-score within array); higher = stronger binding
# Conditions in all cases: glycan notation: IUPAC condensed, linker removed
# [1] = biological target: Fuc(a1-2)[GalNAc(b1-3)]Gal
# Method in brief: (§1)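 The binding signal is a Z-score computed within each array and averaged over linkers. Arrays of the same protein sequence at different concentrations or buffers were also averaged together. Data originate from 3228 arrays in the Consortium for Functional Glycomics database, kept only where the protein sequence was available.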
# Fuc(a1-3)GlcNAc = biological target: Fuc(a1-3)GlcNAc
# Method in brief: as §1
# [2] = biological target: Fuc(a1-3)[Gal(b1-4)]Glc6S
# Method in brief: as §1
# [3] = biological target: Fuc(a1-3)[Gal(b1-4)]GlcNAc
# Method in brief: as §1
# [4] = biological target: Fuc(a1-3)[Gal(b1-4)]GlcNAc(b1-2)Man
# Method in brief: as §1
# [5] = biological target: Fuc(a1-3)[Gal(b1-4)]GlcNAc(b1-2)Man(a1-3)[Fuc(a1-3)[Gal(b1-4)]GlcNAc(b1-2)Man(a1-6)]Man(b1-4)GlcNAc(b1-4)GlcNAc
# Method in brief: as §1
# [6] = biological target: Fuc(a1-3)[Gal(b1-4)]GlcNAc(b1-2)Man(a1-3)[Fuc(a1-3)[Gal(b1-4)]GlcNAc(b1-2)Man(a1-6)]Man(b1-4)GlcNAc(b1-4)[Fuc(a1-6)]GlcNAc
# Method in brief: as §1
# [7] = biological target: Fuc(a1-3)[Gal(b1-4)]GlcNAc(b1-3)Gal(b1-3)[Fuc(a1-4)]GlcNAc
# Method in brief: as §1
# [8] = biological target: Fuc(a1-3)[Gal(b1-4)]GlcNAc(b1-3)Gal(b1-4)[Fuc(a1-3)]GlcNAc
# Method in brief: as §1
# [9] = biological target: Fuc(a1-3)[Gal(b1-4)]GlcNAc(b1-3)Gal(b1-4)[Fuc(a1-3)]GlcNAc(b1-3)Gal(b1-4)[Fuc(a1-3)]GlcNAc
# Method in brief: as §1
# [10] = biological target: Fuc(a1-3)[Gal(b1-4)]GlcNAc(b1-3)GalNAc
# Method in brief: as §1
# [11] = biological target: Fuc(a1-3)[Gal(b1-4)]GlcNAc(b1-6)GalNAc
# Method in brief: as §1
# [12] = biological target: Fuc(a1-3)[Gal(b1-4)]GlcNAc(b1-6)[Gal(b1-3)GlcNAc(b1-3)]Gal(b1-4)Glc
# Method in brief: as §1
# [13] = biological target: Fuc(a1-3)[Gal(b1-4)]GlcNAc6S
# Method in brief: as §1
# [14] = biological target: Fuc(a1-3)[Gal3S(b1-4)]Glc
# Method in brief: as §1
# [15] = biological target: Fuc(a1-3)[Gal3S(b1-4)]GlcNAc
# Method in brief: as §1
# [16] = biological target: Fuc(a1-3)[Gal3S(b1-4)]GlcNAc6S
# Method in brief: as §1
# [17] = biological target: Fuc(a1-3)[GalNAc(b1-4)]GlcNAc
# Method in brief: as §1
# [18] = biological target: Fuc(a1-3)[GalNAc(b1-4)]GlcNAc6S
# Method in brief: as §1
# Fuc(a1-4)GlcNAc = biological target: Fuc(a1-4)GlcNAc
# Method in brief: as §1
# Fuc(b1-3)GlcNAc = biological target: Fuc(b1-3)GlcNAc
# Method in brief: as §1
# Gal(a1-2)Gal = biological target: Gal(a1-2)Gal
# Method in brief: as §1
# Gal(a1-3)Gal = biological target: Gal(a1-3)Gal
# Method in brief: as §1
# Gal(a1-3)Gal(b1-3)GlcNAc = biological target: Gal(a1-3)Gal(b1-3)GlcNAc
# Method in brief: as §1
# [19] = biological target: Gal(a1-3)Gal(b1-3)GlcNAc(b1-2)Man
# Method in brief: as §1
# [20] = biological target: Gal(a1-3)Gal(b1-3)GlcNAc(b1-2)Man(a1-3)[Gal(a1-3)Gal(b1-3)GlcNAc(b1-2)Man(a1-6)]Man(b1-4)GlcNAc(b1-4)GlcNAc
# Method in brief: as §1
# [21] = biological target: Gal(a1-3)Gal(b1-3)GlcNAc(b1-3)GalNAc
# Method in brief: as §1
# [22] = biological target: Gal(a1-3)Gal(b1-3)GlcNAc(b1-6)GalNAc
# Method in brief: as §1
# [23] = biological target: Gal(a1-3)Gal(b1-3)[Fuc(a1-4)]GlcNAc(b1-2)Man(a1-3)[Gal(a1-3)Gal(b1-3)[Fuc(a1-4)]GlcNAc(b1-2)Man(a1-6)]Man(b1-4)GlcNAc(b1-4)GlcNAc
# Method in brief: as §1
# Gal(a1-3)Gal(b1-4)Glc = biological target: Gal(a1-3)Gal(b1-4)Glc
# Method in brief: as §1
# Gal(a1-3)Gal(b1-4)GlcNAc = biological target: Gal(a1-3)Gal(b1-4)GlcNAc
# Method in brief: as §1
# [24] = biological target: Gal(a1-3)Gal(b1-4)GlcNAc(b1-2)Man
# Method in brief: as §1
# [25] = biological target: Gal(a1-3)Gal(b1-4)GlcNAc(b1-2)Man(a1-3)[Gal(a1-3)Gal(b1-4)GlcNAc(b1-2)Man(a1-6)]Man(b1-4)GlcNAc(b1-4)GlcNAc
# Method in brief: as §1
# [26] = biological target: Gal(a1-3)Gal(b1-4)GlcNAc(b1-3)GalNAc
# Method in brief: as §1
# [27] = biological target: Gal(a1-3)Gal(b1-4)GlcNAc(b1-6)GalNAc
# Method in brief: as §1
# [28] = biological target: Gal(a1-3)Gal(b1-4)[Fuc(a1-3)]GlcNAc
# Method in brief: as §1
# [29] = biological target: Gal(a1-3)Gal(b1-4)[Fuc(a1-3)]GlcNAc(b1-2)Man(a1-3)[Gal(a1-3)Gal(b1-4)[Fuc(a1-3)]GlcNAc(b1-2)Man(a1-6)]Man(b1-4)GlcNAc(b1-4)GlcNAc
# Method in brief: as §1
# Gal(a1-3)GalNAc = biological target: Gal(a1-3)GalNAc
# Method in brief: as §1
# [30] = biological target: Gal(a1-3)[Gal(a1-4)]Gal(b1-4)GlcNAc
# Method in brief: as §1
# [31] = biological target: Gal(a1-4)Gal(b1-3)GlcNAc(b1-2)Man(a1-3)[Gal(a1-4)Gal(b1-3)GlcNAc(b1-2)Man(a1-6)]Man(b1-4)GlcNAc(b1-4)GlcNAc
# Method in brief: as §1
# Gal(a1-4)Gal(b1-4)Glc = biological target: Gal(a1-4)Gal(b1-4)Glc
# Method in brief: as §1
# Gal(a1-4)Gal(b1-4)GlcNAc = biological target: Gal(a1-4)Gal(b1-4)GlcNAc
# Method in brief: as §1
# [32] = biological target: Gal(a1-4)Gal(b1-4)GlcNAc(b1-2)Man(a1-3)[Gal(a1-4)Gal(b1-4)GlcNAc(b1-2)Man(a1-6)]Man(b1-4)GlcNAc(b1-4)GlcNAc
# Method in brief: as §1
# [33] = biological target: Gal(a1-4)Gal(b1-4)GlcNAc(b1-3)Gal(b1-4)Glc
# Method in brief: as §1
# Gal(a1-4)GlcNAc = biological target: Gal(a1-4)GlcNAc
# Method in brief: as §1
binder,measurement,setting,value
B1,glycan array binding signal (z-score),[1],-0.291
same,glycan array binding signal (z-score),Fuc(a1-3)GlcNAc,-0.382
same,glycan array binding signal (z-score),[2],-0.309
same,glycan array binding signal (z-score),[3],-0.388
same,glycan array binding signal (z-score),[4],-0.467
same,glycan array binding signal (z-score),[5],-0.365
same,glycan array binding signal (z-score),[6],-0.358
same,glycan array binding signal (z-score),[7],-0.425
same,glycan array binding signal (z-score),[8],-0.404
same,glycan array binding signal (z-score),[9],-0.342
same,glycan array binding signal (z-score),[10],-0.385
same,glycan array binding signal (z-score),[11],-0.345
same,glycan array binding signal (z-score),[12],0.244
same,glycan array binding signal (z-score),[13],-0.324
same,glycan array binding signal (z-score),[14],-0.349
same,glycan array binding signal (z-score),[15],-0.367
same,glycan array binding signal (z-score),[16],-0.395
same,glycan array binding signal (z-score),[17],-0.244
same,glycan array binding signal (z-score),[18],0.103
same,glycan array binding signal (z-score),Fuc(a1-4)GlcNAc,-0.315
same,glycan array binding signal (z-score),Fuc(b1-3)GlcNAc,-0.334
same,glycan array binding signal (z-score),Gal(a1-2)Gal,0.752
same,glycan array binding signal (z-score),Gal(a1-3)Gal,1.29
same,glycan array binding signal (z-score),Gal(a1-3)Gal(b1-3)GlcNAc,1.03
same,glycan array binding signal (z-score),[19],2.38
same,glycan array binding signal (z-score),[20],0.398
same,glycan array binding signal (z-score),[21],1.15
same,glycan array binding signal (z-score),[22],1.22
same,glycan array binding signal (z-score),[23],0.178
same,glycan array binding signal (z-score),Gal(a1-3)Gal(b1-4)Glc,1.14
same,glycan array binding signal (z-score),Gal(a1-3)Gal(b1-4)GlcNAc,2.05
same,glycan array binding signal (z-score),[24],1.69
same,glycan array binding signal (z-score),[25],5.84
same,glycan array binding signal (z-score),[26],3.54
same,glycan array binding signal (z-score),[27],1.25
same,glycan array binding signal (z-score),[28],1.16
same,glycan array binding signal (z-score),[29],0.623
same,glycan array binding signal (z-score),Gal(a1-3)GalNAc,-0.193
same,glycan array binding signal (z-score),[30],3.32
same,glycan array binding signal (z-score),[31],4.07
same,glycan array binding signal (z-score),Gal(a1-4)Gal(b1-4)Glc,2.55
same,glycan array binding signal (z-score),Gal(a1-4)Gal(b1-4)GlcNAc,3.63
same,glycan array binding signal (z-score),[32],8.66
same,glycan array binding signal (z-score),[33],4.55
same,glycan array binding signal (z-score),Gal(a1-4)GlcNAc,0.842

# Reference: the supplement of paper PMC8728848
